According to paper PMC4336329 (PLoS ONE, 2015):
In all, about 310,000 compounds went through this assay and about 2,200 (0.71%) showed an effect of 50% or more. Effects have a minus sign here. Some of the results follow.

Target: human ether-à-go-go-related gene (hERG) potassium channel (human, UniProt Q12809)
Assay: primary screen, population patch clamp on CHO cells stably expressing hERG

human ether-à-go-go-related gene (hERG) potassium channel, sequence (Q12809 whole entry, looked up): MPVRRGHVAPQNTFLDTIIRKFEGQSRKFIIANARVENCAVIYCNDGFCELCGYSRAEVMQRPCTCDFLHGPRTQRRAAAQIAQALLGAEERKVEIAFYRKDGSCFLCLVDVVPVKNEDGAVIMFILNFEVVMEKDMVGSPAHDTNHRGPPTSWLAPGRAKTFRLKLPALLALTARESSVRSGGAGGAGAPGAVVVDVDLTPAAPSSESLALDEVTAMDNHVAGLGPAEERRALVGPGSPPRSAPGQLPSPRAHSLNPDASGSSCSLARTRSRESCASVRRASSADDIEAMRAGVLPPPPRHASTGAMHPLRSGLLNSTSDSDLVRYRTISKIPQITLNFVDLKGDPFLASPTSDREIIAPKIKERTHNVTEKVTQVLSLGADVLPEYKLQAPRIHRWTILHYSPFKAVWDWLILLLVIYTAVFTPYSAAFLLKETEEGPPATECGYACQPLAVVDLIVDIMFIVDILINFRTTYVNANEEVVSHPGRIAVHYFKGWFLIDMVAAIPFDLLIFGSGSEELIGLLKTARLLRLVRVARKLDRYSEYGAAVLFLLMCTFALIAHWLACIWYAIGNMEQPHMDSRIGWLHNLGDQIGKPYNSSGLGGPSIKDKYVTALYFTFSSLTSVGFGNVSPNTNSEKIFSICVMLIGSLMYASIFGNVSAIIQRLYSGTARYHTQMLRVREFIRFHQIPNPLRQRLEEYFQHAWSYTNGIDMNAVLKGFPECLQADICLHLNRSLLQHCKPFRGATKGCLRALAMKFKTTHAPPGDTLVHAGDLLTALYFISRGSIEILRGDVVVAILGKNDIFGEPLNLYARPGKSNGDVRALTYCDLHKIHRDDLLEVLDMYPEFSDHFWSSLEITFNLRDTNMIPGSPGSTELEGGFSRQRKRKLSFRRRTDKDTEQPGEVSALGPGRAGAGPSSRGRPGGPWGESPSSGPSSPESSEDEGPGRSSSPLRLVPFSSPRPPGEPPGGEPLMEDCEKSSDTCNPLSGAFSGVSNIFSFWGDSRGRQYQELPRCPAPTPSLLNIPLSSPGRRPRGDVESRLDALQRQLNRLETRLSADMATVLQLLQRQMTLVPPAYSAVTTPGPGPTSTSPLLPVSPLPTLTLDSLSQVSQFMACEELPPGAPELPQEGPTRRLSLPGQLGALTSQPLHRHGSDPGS

Point of comparison: `COC(=O)CSc1nnc(CCc2nc3ccccc3[nH]2)n1C`, “hERG current change (%, negative = inhibition) at 1uM” value 8.24%. Against it:
- COc1cccc(NC(=O)Nc2ccc3c(c2)CCC3)c1 — higher, 17.6%
- Cc1ccc(S(=O)(=O)NCCC(=O)Nc2ccc(Cl)c(Cl)c2)cc1 — lower, -3.56%
- CSc1nnc(Cn2c(=O)sc3ccccc32)n1-c1cccc(Cl)c1 — lower, -11.6%
- COCCn1c(-c2ccccc2)cnc1N — lower, 0.0863%
- CC(C)=CCN1CCN(Cc2coc3ccc(C)cc3c2=O)CC1CCO (centres unmarked) — lower, 0.0603%
- COc1cc(/C=C/C(=O)OCc2csc(CC(=O)Nc3ccc(C)cc3)n2)ccc1OCC#N — higher, 14.1%
- CCOc1ccc(C(=O)Nc2nc3ccccc3[nH]2)cc1OCC — lower, 4.22%
- COC(=O)C1SCC2C(=O)N(Cc3ccc(Cl)c(Cl)c3)CC(=O)N21 (centres unmarked) — lower, 7.64%
- O=C1NC[C@H](Cc2ccccc2)N(CCc2cccc(F)c2)C1=O — lower, 6.7%
- CCC(C)(C)n1nnnc1C(c1ccc(C)cc1)N1CCCC1.Cl (centres unmarked) — higher, 8.27%
- CN(C(=O)c1ccc(NC(=O)Cc2cccc(NC(=O)C3CCN(C(=O)CCc4ccccc4)CC3)c2)cc1)C1CCCC1 — higher, 16.2%
- Cc1nc2ccccc2c(=O)n1-c1cccc([N+](=O)[O-])c1 — higher, 10.8%
- Cc1ccccc1-c1nnn(C/C(N)=N/O)n1 — higher, 15.2%
- CCOc1ccc(Br)cc1CC(=O)O — higher, 14.5%
- CC1CCCCN1C(=O)Cn1c(=O)oc2cc(S(=O)(=O)N3CCCC3)ccc21 (centres unmarked) — higher, 15%
- CCC(C)n1c(O)c(/C=N/NC(=O)c2ccncc2)c(=O)[nH]c1=S (centres unmarked) — the same, 8.24%
- COC(=O)c1ccc(-c2ccco2)n1Cc1nc(-c2ccc(OC)c(OC)c2)oc1C — lower, 0.0741%
- COc1ccc(CCN(C)C2CCCN(S(=O)(=O)N(C)C)C2)cc1OC (centres unmarked) — higher, 8.71%
- O=C1CC(c2cccnc2)=NN1c1ccccc1 — higher, 16.3%
- COc1ccccc1OCCSc1nc2ccccc2n1CC(N)=O — higher, 16.1%
- Cc1ncc(C[n+]2csc(CCOC(=O)C34CC5CC(CC(C5)C3)C4)c2C)c(N)n1.Cl.[Cl-] — lower, 4%
- CCOc1ccc2nc(NC(=O)CN3C(=O)C4CCCCC4C3=O)sc2c1 (centres unmarked) — higher, 12.9%
- COc1ccccc1C(=O)NCC(=O)OCc1csc(-c2ccccc2)n1 — higher, 10.6%
- Cc1ccc(Nc2oc(C)nc2C#N)cc1 — higher, 10.6%
- CCOC(=O)C1CCCN(CCC(=O)Nc2cccc(C)c2)C1.Cl (centres unmarked) — lower, -0.545%
- COc1cccc(NC(=O)CN(C)S(=O)(=O)c2ccc3[nH]c(=O)oc3c2)c1 — lower, 3.98%
- O=C1c2ccc3c4c(ccc(c24)C(=O)N1NC(=O)C(F)(F)F)CC3 — higher, 10.1%
- CN1C(=O)CSC1=Nc1cccc(Cl)c1 — lower, 8.17%
- CCc1ccc(-n2nnnc2SCC(=O)Nc2ccc(NC(C)=O)cc2)cc1 — higher, 20.4%
- Cc1nn(-c2ccc(C(=O)O)cc2)c2c1C(=O)CC(C)(C)C2 — higher, 9.87%
- CCOc1ccc2[nH]c3c(c2c1)CNCC3 — lower, 7.07%
- CC(C)CN(C(=O)CN1CCC(C)CC1)c1c(N)n(CC(C)C)c(=O)[nH]c1=O — higher, 16.1%
- Cc1cc(C)n(-c2nc(C(=O)O)cs2)n1 — higher, 16.4%
- COc1cc(C(=O)NCCOc2ccccc2)c(Br)c(OC)c1OC — lower, -26.3%
- Nc1nnc(CC(=O)N/N=C\c2ccc(-c3cccc(Cl)c3)o2)s1 — lower, -2.3%
- O=S(=O)(NC1c2cccc3cccc(c23)C1N1CCNCC1)c1ccc(Cl)cc1 (centres unmarked) — lower, -0.188%
- O=C(c1ccc(F)cc1)N1CCN(c2cc(=O)[nH]nc2-c2ccccc2)CC1 — lower, 6.34%
- CC(=O)Nc1ccc(NC(=O)CCCNC(=O)c2ccc(Cl)cc2)cc1 — higher, 17.4%
- OCCN(CCO)c1ccc(C(c2ccc(Cl)cc2)c2ccc(N(CCO)CCO)cc2Cl)c(Cl)c1 — lower, -2.52%
- O=C(O)[C@@H]1CCCN1C(=O)CCc1c[nH]c2ccccc12 — higher, 8.31%
- Cc1ccc2cccc(OCC(=O)Nc3ccc(N4CCOCC4)cc3)c2n1 — lower, 5.29%
- Cc1nn(C)c(C)c1S(=O)(=O)N(CC(=O)Nc1ccccn1)c1ccc(C(C)C)cc1 — higher, 11.2%
- Cc1ccc(Cn2nc(C)c(C(=O)N3CCN(S(=O)(=O)/C=C/c4ccccc4)CC3)c2C)cc1 — lower, 7.03%
- O=C1CCC(=O)N1CCc1c[nH]c2ccccc12 — higher, 13%
- Cc1ccc(N=C2NC(=O)/C(=C\c3ccsc3)S2)c(C)c1 — higher, 9.18%
- CCOC(=O)c1c(NC(=O)COC(=O)c2nc(Cl)ccc2Cl)sc(C(=O)NC)c1C — lower, 5.54%
- COc1ccccc1NC(=O)CCN1C(=O)c2ccccc2C1=O — lower, 7.7%
- CCOC(=O)/C=C1\SCC(=O)N1CCOc1cccc(Br)c1 — higher, 14.5%
- O=C(NC(NC(=S)Nc1ccccc1)C(Cl)(Cl)Cl)c1cccc(Cl)c1 (centres unmarked) — higher, 13.5%
- O=C(O)c1cc(-c2cccs2)nn1-c1ccc(F)cc1 — higher, 9.27%
- O=c1[nH]c(N2CCOCC2)nc2c1CCCC2 — lower, 4.88%
- NC(=O)c1ccc(NS(=O)(=O)c2ccccc2F)cc1 — lower, 2.75%
- C#CCOCCOCCOCCNc1nc(N2CCN(C(=O)[C@H](C)n3cc(CCC[NH+]=C(N)N)nn3)CC2)nc(N2CCN(C(=O)[C@H](C)n3cc(CCC[NH+]=C(N)N)nn3)CC2)n1.[Cl-] — lower, 6.86%
- CCCn1c(SCC(=O)Nc2sc(C)c(C)c2C#N)nnc1C(C)C — lower, 5.62%
- Cc1cc(O)c2c(c1)OC(C)(C)C1=C2CC(C)CC1 (centres unmarked) — higher, 13.5%
